Results from PubChem BioAssay AID1159614 (National Center for Advancing Translational Sciences (NCATS), 2016).
Hit rate of the full screen: of about 45,000 compounds, about 65 (0.1%) were called active. The call rests on the fitted dose curve; in most records, active means well fitted activation curve with a large enough effect; inconclusive means small, poorly fitted or top-dose-only effect; inactive means no such curve, though single readings can be large or run the other way. Some of the results follow.

biological target: Galactocerebrosidase (Homo sapiens) (UniProt P54803); assay: A Novel Cell-Based Assay to Identify Small Molecules for B -Galactocerebrosidase; settings: 145M-Twi-hGALC-G270D cells (Twitcher mouse brain line with human GALC G270D), HMU-beta-Gal fluorescence, 48 h; series mostly up to 57.5 µM; activation: at the top concentration; further: 0% is about no effect; nearly all actives have a fitted effect of over 65% in size
Outline: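 Fluorogenic HMU-b-Gal hydrolysis (0.1 mM final, pH 5.2 citrate-phosphate with 1 mg/mL sodium taurocholate; carbonate stop buffer) measures mutant GALC activity after compound treatment of live 145M-Twi Twitcher brain cells stably carrying human GALC-G270D, with wild-type GALC line alongside; activation sought.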

UniProt P54803, sequence (P54803 whole entry, looked up): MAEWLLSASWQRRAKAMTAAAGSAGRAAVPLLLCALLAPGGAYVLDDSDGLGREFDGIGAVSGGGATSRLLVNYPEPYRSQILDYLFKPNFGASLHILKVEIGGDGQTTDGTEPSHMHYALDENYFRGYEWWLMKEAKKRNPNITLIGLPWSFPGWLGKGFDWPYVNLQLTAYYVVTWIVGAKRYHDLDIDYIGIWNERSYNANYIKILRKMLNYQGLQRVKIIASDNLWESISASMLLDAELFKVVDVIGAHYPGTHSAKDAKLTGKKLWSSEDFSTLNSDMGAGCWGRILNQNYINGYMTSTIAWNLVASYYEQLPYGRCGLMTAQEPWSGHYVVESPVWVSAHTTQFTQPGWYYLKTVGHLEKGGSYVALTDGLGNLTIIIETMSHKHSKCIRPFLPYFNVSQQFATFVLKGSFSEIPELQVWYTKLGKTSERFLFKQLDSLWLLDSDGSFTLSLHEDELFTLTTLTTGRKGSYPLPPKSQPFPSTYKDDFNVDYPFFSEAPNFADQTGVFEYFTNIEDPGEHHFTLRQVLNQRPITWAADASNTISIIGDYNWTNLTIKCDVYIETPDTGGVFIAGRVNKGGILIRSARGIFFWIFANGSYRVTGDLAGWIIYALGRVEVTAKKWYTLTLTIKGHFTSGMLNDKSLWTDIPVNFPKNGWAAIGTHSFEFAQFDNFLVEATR

activation, inactive:
CSc1ccc(-c2nc3cccc(C)n3c2Nc2ccc(Cl)cc2)cc1 -2.58%, COc1ccccc1N1C(=O)N(CC(=O)C(C)(C)C)c2ccccc2S1(=O)=O -11.1%, CCOc1ccccc1CNC(=O)CCCn1ccc2cc(S(=O)(=O)N3CCCC3)ccc21 -8.11%, O=C(O)c1ccc(NC(=O)c2cc(S(=O)(=O)N3CCCCC3)c(Cl)cc2Cl)cc1 -14.8%, Cc1cccc(C(=O)NNc2ncnc3c2cnn3-c2ccc(C)cc2C)c1 -16.3%, CC(C)c1ccc(S(=O)(=O)c2cnc(SCC(=O)Nc3ccc4c(c3)OCCO4)[nH]c2=O)cc1 -4.29%, Cc1ccc(Cn2cnc3nc4c(cc3c2=O)CC(C)CC4)cc1 (configuration not stated) -10.9%, COc1cccc(C(=O)Nc2nnc(S(=O)(=O)N3CCCC3)s2)c1 -3.06%, CCOc1ccc(CCNC(=O)c2nn(C)c3c2CSc2ccccc2-3)cc1 2.83%, O=C(O)Cc1ccccc1Oc1ccc(Cl)cc1Cl -14.9%, COc1cc(OC)cc(OC)c1 -18.1%, Cc1ccc(Nc2c(C(C)C)c(C)c(C#N)c3nc4ccccc4n23)cc1 -13.3%, CCCNC(=O)CN1C(=O)CSc2ccc(S(=O)(=O)N3CCC(C)CC3)cc21 -7.95%, CCOc1ccc(NC(=O)c2cc(S(=O)(=O)NC3CCCCCC3)ccc2F)cc1 -4.07%, COc1ccc2c(c1)CCc1c(C(=O)Nc3c(C)nn(Cc4ccccc4)c3C)noc1-2 -9.26%, Cc1ccccc1-c1noc(-c2ccc(NCc3ccco3)c([N+](=O)[O-])c2)n1 -16.5%, CCC(C)NC(=O)CCCc1nnc2n(CC(C)C)c(=O)c3sccc3n12 (configuration not stated) -20.4%, CCN(CC)C(=O)C1CCN(S(=O)(=O)c2c(C)noc2/C=C/c2cccc(OC)c2)CC1 -12%, CCOc1ccc(C2CC(=O)c3c([nH]c(C(=O)OCC4CCCCC4)c3C)C2)cc1 (configuration not stated) -17.9%, Cc1ccc(S(=O)(=O)C(CNC(=O)C(=O)NCCc2ccccc2)c2cccs2)cc1 (configuration not stated) -2.05%, O=c1oc2ccccc2c(N2CCN(c3ccccc3F)CC2)c1CN1CCCC1 -8.87%, COCCCNC(=O)c1nn(-c2ccc(C)cc2)nc1CO 0.728%, COc1ccc2c(Sc3ccc(C)cc3)c(C(=O)NC(C)C)[nH]c2c1 -31.7%, CCOc1ccccc1NC(=O)CSc1nccn1-c1cccc(C)c1 -39.8%, CCOc1ccc(-n2c(=O)c3c(C)c(C)sc3n(CC(=O)NCCc3ccccc3)c2=O)cc1 -6.8%, O=C(CN1C(=O)CSc2ccc(S(=O)(=O)N3CCCC3)cc21)Nc1cccc(Cl)c1 -24.5%, Cc1cccc(CNC(=O)Cn2ccc3cc(S(=O)(=O)N4CCCCCC4)ccc32)c1 -12%, COc1cccc(NC(=O)C(Cc2ccccc2)NS(=O)(=O)c2ccc3c(c2)c(=O)n(C)c(=O)n3C)c1 (configuration not stated) -4.35%, CCCc1cc(=O)oc2cc(C)c3c(-c4ccccc4)coc3c12 -22.9%, CC(C)c1ccc(OCC(=O)N(Cc2cccs2)C2CCS(=O)(=O)C2)cc1 (configuration not stated) -6.43%, COc1ccc(CNC(=O)CCc2c(C)c3cc4c(C)c(C)oc4cc3oc2=O)cc1OC 6.34%, Cc1cccc(C2CC(=O)Nc3cc4c(cc32)OCO4)c1 (configuration not stated) -4.51%, CCc1nc2nc(C)cc(Nc3cccc(C)c3C)n2n1 -17.1%, Cc1cc2ccccc2n1CCNC(=O)c1ccc(Br)cc1 -16.4%, CCc1ccc(NC(=O)CN2C(=O)C3(SCC(=O)N3c3ccc(F)c(F)c3)c3ccccc32)cc1 (configuration not stated) -24.3%, CSc1ccc(-c2nnc(NC(=O)c3ccc4c(c3)OCCO4)o2)cc1 -17.5%, Fc1ccccc1N1CCN(c2nc3ccccc3c3nc(-c4ccccc4)nn23)CC1 -5.27%, Cc1ccc(N2CC(C(=O)Nc3ccc(N(C)C)cc3)CC2=O)cc1Cl (configuration not stated) -4.57%, CCN(CC)c1ccc(NC(=O)CCCN2C(=O)C(c3ccccc3)Oc3cccnc32)c(C)c1 (configuration not stated) 2.39%, O=C(NC1CCCC1)c1ccc2c(=O)n(Cc3ccccc3)c(SCc3cccc(F)c3)nc2c1 -11.5%, CCC(C(=O)N1CCN(c2ccccc2)CC1)n1c(C)c2cnn(-c3ccccc3)c(=O)c2c1C (configuration not stated) -15%, CCOc1cc(Cl)c(S(=O)(=O)n2ccnc2)cc1Cl -9.44%, Cc1nnc(N2CCC(C(=O)NCCC(C)C)CC2)c2nn(-c3ccc(Cl)cc3)c(C)c12 -12%, C=C(C)CSc1nc(-c2ccccc2)cc(-c2ccc(OC)cc2)c1C#N -17.7%, Cc1cc(C)n(C(C)CC(=O)Nc2ccc(C)c(N(C)C)c2)n1 (configuration not stated) -20.1%, COC(=O)c1ccc(NC(=O)CN2C(=O)CC(c3ccccc3)Sc3ccccc32)cc1 (configuration not stated) 1.34%, CC(=O)Nc1cccc(-n2cc3c(c2-c2ccccc2Cl)c(=O)n(C)c(=O)n3C)c1 -14.6%, O=C(CN1C(=O)c2cccnc2Oc2ccc(Cl)cc21)Nc1cccc(C(F)(F)F)c1 -6.23%, COc1ccc(C)cc1Nc1cc(C)nc(C)n1 -14.9%, CC(C)Oc1ccc(C(=O)Nc2c(C(=O)Nc3cccc(F)c3)oc3ccccc23)cc1 -10.2%, O=C(CCn1ccc2cc(S(=O)(=O)N3CCCC3)ccc21)NCc1ccccc1Br 19.2%, O=C(CSc1nc(-c2ccc(F)cc2)[nH]c1-c1ccc(F)cc1)Nc1ccc2c(c1)OCO2 -34.8%, O=C(Cc1ccc(-c2ccccc2)cc1)NCCS(=O)(=O)N1CCN(c2ccccc2)CC1 -16%, COc1cc(NC(=O)CSc2ccc(-c3ccccn3)nn2)cc(OC)c1 -12.8%, O=C(Cn1cc(S(=O)(=O)c2ccccc2)c(=O)c2cc(Cl)ccc21)Nc1ccc2c(c1)OCO2 -11.8%, O=C(NCCCN1CCOCC1)c1ccc2c(c1)N(Cc1cccc(Cl)c1)C(=O)c1ccccc1S2 -6.37%, Cc1cc(Nc2cccc(C(F)(F)F)c2)nc2ccc(NC(=O)c3cccc(Cl)c3)cc12 -5.36%, CCOc1cc(C(=O)NCC(c2ccc(N(C)C)cc2)N2CCOCC2)cc(OCC)c1OCC (configuration not stated) -3.95%, O=S(=O)(c1cccc2ccccc12)N1CCN(c2ccc(Cl)c(Cl)c2)CC1 -13.7%, COc1ccc(NC(C)=O)cc1NC(=O)CN1CCN(c2ccc(F)cc2)CC1 -3.36%, Cc1ccn2c(=O)cc(COc3cccc(NC(=O)Nc4cccc(Cl)c4C)c3)nc2c1 -3.25%, COc1ccccc1NC(=O)C1=C(C)Nc2nc3ccccc3n2C1c1cccc(OC)c1OC (configuration not stated) -27%, COc1ccc(-c2cc(C(F)(F)F)nc(SCC(=O)NCC(C)C)n2)cc1OC -27.2%, Cc1ccc(CNC(=O)c2ccc(CS(=O)Cc3cccc(Cl)c3)o2)cc1 (configuration not stated) -27.2%, Cc1ccc(-c2cn3c(n2)sc2cc(C(=O)NCCCc4ccccc4)ccc23)c(C)c1 -9.71%, CC1CCCN(S(=O)(=O)c2ccc3c(c2)c(=O)nc2ccccn23)C1 (configuration not stated) -12%, CCCCN(CCCNC(=O)c1cc(Nc2ccc(OC)c(OC)c2)nc2ccccc12)c1ccccc1 -9.31%, CCOc1ccc(CNCc2c(C(=O)O)c(C)n(Cc3c(F)cccc3Cl)c2C)cc1OC -6.7%, CC(CCc1ccccc1)NC(=O)Cn1c(=O)nc(-c2ccccc2)c2ccccc21 (configuration not stated) -1.73%, CCOC(=O)c1cnc2c(C)c(Cl)ccc2c1Nc1ccc(N2CCOCC2)cc1 -4.77%, CCc1cccc(NC(=O)CN(C)S(=O)(=O)c2ccc3c(c2)CCCN3C(C)=O)c1 4.86%, Cc1cc(C)c(S(=O)(=O)NCC(c2ccc(N(C)C)cc2)N2CCOCC2)c(C)c1 (configuration not stated) -10.8%, Cc1ccc2oc(=O)n(CCCOc3ccccc3Cl)c2c1 -21.9%, COc1ccccc1-c1noc(-c2ccc(NCC3CCCO3)c([N+](=O)[O-])c2)n1 (configuration not stated) 8.51%, CCCCN(C)CCNC(=O)CN1C(=O)CSc2ccc(S(=O)(=O)N3CCOCC3)cc21 -13.6%, CCc1nn2c(=O)c(S(=O)(=O)Nc3ccc(Cl)cc3)c(C)nc2s1 -21%, Cc1ccccc1Nc1c(-c2cccnc2)nc2ccc(Cl)cn12 -7.71%, CC(=O)O[C@@]12CO[C@@H]1C[C@H](O)[C@@]1(C)C(=O)[C@H](O)C3=C(C)[C@@H](OC(=O)[C@H](O)[C@@H](NC(=O)OC(C)(C)C)c4ccccc4)C[C@@](O)([C@@H](OC(=O)c4ccccc4)[C@H]21)C3(C)C -10.4%, COc1cccc(NC(=O)CN(CCc2ccccc2)S(=O)(=O)c2ccc(Cl)cc2)c1 -9.7%, Cc1nc2ccccc2n1CCc1nc2c3ccccc3nc(SCc3ccc(C#N)cc3)n2n1 -19.4%, O=c1c(NCc2cccs2)nccn1-c1ccc(F)cc1 -20.8%, CCOc1ccc(NS(=O)(=O)c2ccc3[nH]c4c(c3c2)CCCCC4)cc1 -17.9%, O=C(COCc1cc(-c2ccc(F)cc2)on1)Nc1cc(F)ccc1F 1.97%, O=S(=O)(NCc1nc2cccnc2n1Cc1ccccc1Cl)c1ccc2c(c1)CCCC2 -6.83%, Cc1cccc(-c2nc3c4ccccc4nc(NCCc4ccccc4)n3n2)c1 -1.74%, O=C(CCn1cccn1)Nc1ccc(Br)cc1F -17.9%, COc1ccc(CNC(=O)c2ccc3c(c2)N(Cc2c(F)cccc2Cl)C(=O)CS3)cc1 -11.6%, CCOC(=O)CSc1nc2ccc(NC(=O)c3cccc(F)c3)cc2s1 6.97%, CCc1cc2c(cc3c(=O)n(CCCC(=O)NCc4cccc(Cl)c4)ncn32)s1 -3.71%, O=C(CN1C(=O)CCn2nc(-c3ccccc3)cc21)NCc1ccc(Cl)cc1 -6.32%, Cc1cccc(CCNC(=O)c2cc3c(=O)n(C)c4ccccc4c3n2C)c1 -10.4%, COc1ccccc1N1CCN(C(=O)c2c(C)oc3ncn(C)c(=O)c23)CC1 -17.1%, O=C(CCSCc1ccccc1Cl)NCc1ccc(F)cc1Cl -24.4%, Cc1cc2c(n1-c1ccc(C(=O)NCc3ccccc3Cl)cc1)CCCC2 -19.5%, CCN(CC)CCCNC(=O)Cc1csc2nc(-c3ccc(Cl)cc3)cn12 -4.92%, CSc1ccc(CCNC(=O)CCc2c(C)nc3ncnn3c2C)cc1 -6.68%, CCOc1ccccc1C(=O)NC1(C(F)(F)F)C(=O)Nc2c1c(=O)[nH]c(=O)n2-c1ccc(F)cc1 (configuration not stated) -13.3%
